{"source": "PubChem BioAssay (EPA / NIEHS)", "key": {"[1]": {"biological_target": "human RAR-related Orphan Receptor beta (RORb), RORB (gene 6096) (UniProt Q92753)", "sequence (Q92753 whole entry, looked up, the tested form may be a part)": "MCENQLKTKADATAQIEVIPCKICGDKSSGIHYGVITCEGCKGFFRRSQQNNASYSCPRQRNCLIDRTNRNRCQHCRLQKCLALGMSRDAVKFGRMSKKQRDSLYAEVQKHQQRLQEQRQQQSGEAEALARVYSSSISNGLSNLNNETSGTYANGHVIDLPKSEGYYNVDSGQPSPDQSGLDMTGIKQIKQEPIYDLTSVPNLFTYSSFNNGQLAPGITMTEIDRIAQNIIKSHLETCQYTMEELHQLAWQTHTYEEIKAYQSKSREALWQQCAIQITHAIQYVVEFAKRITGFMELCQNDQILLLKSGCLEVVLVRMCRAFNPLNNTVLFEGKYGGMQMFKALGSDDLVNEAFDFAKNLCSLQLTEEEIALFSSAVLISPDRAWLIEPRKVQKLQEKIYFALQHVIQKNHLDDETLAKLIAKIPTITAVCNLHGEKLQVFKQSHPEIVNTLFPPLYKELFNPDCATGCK", "experiment": "ATG_RORb_TRANS: Attagene TRANS-FACTORIAL HepG2 Assay for human RAR-related Orphan Receptor beta (RORb) (AID 2283010)", "in_short": "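In this TRANS-format test, human HepG2 cells express chimeric NR-Gal4 fusion proteins driving GAL4-UAS reporters. After 24 h dosing, reporter transcripts are measured by fluorescent RT-PCR/capillary electrophoresis, with DMSO as negative control.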"}, "[2]": {"biological_target": "human RAR-related Orphan Receptor gamma (RORg), RORC (gene 6097) (UniProt P51449)", "sequence (P51449 whole entry, looked up, the tested form may be a part)": "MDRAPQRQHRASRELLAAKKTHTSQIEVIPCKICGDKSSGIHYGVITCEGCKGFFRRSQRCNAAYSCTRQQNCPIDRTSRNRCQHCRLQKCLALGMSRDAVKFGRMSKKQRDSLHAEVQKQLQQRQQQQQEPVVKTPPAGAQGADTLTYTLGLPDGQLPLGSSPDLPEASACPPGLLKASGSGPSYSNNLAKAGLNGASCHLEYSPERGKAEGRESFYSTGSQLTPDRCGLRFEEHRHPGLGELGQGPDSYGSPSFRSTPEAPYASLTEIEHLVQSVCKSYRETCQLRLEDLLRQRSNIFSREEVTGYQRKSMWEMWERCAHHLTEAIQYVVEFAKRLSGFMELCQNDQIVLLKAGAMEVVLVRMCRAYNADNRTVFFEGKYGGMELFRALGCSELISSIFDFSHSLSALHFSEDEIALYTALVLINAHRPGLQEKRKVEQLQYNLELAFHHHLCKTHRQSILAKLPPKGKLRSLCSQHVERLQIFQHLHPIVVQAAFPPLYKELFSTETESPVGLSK", "experiment": "ATG_RORg_TRANS: Attagene TRANS-FACTORIAL HepG2 Assay for human RAR-related Orphan Receptor gamma (RORg) (AID 2283011)", "in_short": "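Readout: reporter transcript induction (RT-PCR, fluorescent primer extension, capillary electrophoresis) after 24 h compound exposure of transiently transfected HepG2 cells carrying a RORg-Gal4 chimera and GAL4-UAS reporters; DMSO served as baseline, with increasing signal fitted.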"}, "[3]": {"read-out": "Vascular endothelial growth factor receptor 2 (Homo sapiens) (UniProt P35968)", "experiment": "BSK_4H_VEGFRII: BioMAP Diversity Plus: 4H Assay for Vascular endothelial growth factor receptor 2 (VEGFR2) Biomarker Activity (AID 2283031; active = hit-call score of the fitted dose curve at least 0.9, where 1 is the maximum; inactive = score below 0.9)", "details": "actives raise or lower the signal; primary human endothelial cells (HUVEC)", "in_short": "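Primary human umbilical vein endothelial cells in the BioMAP 4H system were dosed with test chemical, and 24 h later VEGFRII was measured by ELISA. Activity was fitted bidirectionally against DMSO as negative control and baseline.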"}, "[4]": {"experiment": "TOX21_p53_BLA_p2_viability: Viability Assessment in the Tox21 HCT-116 p53 Agonism Beta-lactamase Assay, Phase 2 (AID 2283591)", "in_short": "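HCT116 p53-bla cells, 4000/well, dosed after 5 h plating (217-fold dilution of DMSO stocks) and incubated 16 h at 37C. Viability taken as cellular ATP by CellTiter-Glo luminescence after 30 min RT; signal loss marks cytotoxicity.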"}, "[5]": {"biological_target": "Cellular tumor antigen p53 (Homo sapiens) (UniProt P04637)", "sequence (P04637 whole entry, looked up)": "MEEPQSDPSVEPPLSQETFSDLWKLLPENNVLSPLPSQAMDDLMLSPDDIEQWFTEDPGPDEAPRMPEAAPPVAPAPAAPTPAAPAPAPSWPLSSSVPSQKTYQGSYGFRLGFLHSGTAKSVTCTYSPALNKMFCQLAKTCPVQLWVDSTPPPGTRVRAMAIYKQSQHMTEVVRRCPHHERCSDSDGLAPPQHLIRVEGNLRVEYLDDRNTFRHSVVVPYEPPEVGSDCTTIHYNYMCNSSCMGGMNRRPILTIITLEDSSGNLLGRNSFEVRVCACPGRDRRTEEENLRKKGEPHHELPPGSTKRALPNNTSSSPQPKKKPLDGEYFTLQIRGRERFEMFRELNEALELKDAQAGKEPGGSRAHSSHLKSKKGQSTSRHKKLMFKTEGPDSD", "experiment": "TOX21_p53_BLA_p4_ratio: Tox21 HCT-116 p53 Agonism Beta-lactamase Assay, Ratio, Phase 4 (AID 2283601)", "in_short": "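HCT-116 p53 beta-lactamase reporter cells (4000/well) preincubated 5 h, then compound (217-fold dilution of DMSO stock) for 16 h at 37C. CCF4-AM substrate added 2 h at room temperature; 460/530 nm emission ratio fitted upward versus DMSO.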"}, "[6]": {"biological_target": "human Retinoid X Receptor beta (RXRb), RXRB (gene 6257) (UniProt P28702)", "sequence (P28702 whole entry, looked up)": "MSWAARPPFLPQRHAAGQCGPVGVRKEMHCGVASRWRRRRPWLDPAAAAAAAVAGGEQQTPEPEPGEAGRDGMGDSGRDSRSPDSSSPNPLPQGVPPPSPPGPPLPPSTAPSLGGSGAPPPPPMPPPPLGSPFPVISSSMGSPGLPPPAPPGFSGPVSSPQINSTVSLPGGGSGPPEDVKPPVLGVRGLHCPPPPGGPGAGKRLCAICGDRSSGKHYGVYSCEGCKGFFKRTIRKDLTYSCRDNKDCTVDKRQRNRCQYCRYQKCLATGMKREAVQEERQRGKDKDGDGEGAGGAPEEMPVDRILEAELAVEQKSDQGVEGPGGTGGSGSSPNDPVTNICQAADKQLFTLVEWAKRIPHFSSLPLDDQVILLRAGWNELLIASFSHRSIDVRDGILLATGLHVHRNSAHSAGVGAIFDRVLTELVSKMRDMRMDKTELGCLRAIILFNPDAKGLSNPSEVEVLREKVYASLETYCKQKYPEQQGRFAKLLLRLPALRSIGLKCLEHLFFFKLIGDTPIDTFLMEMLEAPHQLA", "experiment": "ATG_RXRb_TRANS: Attagene TRANS-FACTORIAL HepG2 Assay for human Retinoid X Receptor beta (RXRb) (AID 2283013)", "in_short": "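Multiplexed TRANS reporter assay in HepG2; 24 h dosing; reporter mRNA by RT-PCR/CE fluorescence; gain-of-signal relative to DMSO.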"}, "[7]": {"biological_target": "human Vitamin D Receptor (VDR), VDR (gene 7421) (UniProt P11473)", "sequence (P11473 whole entry, looked up, the tested form may be a part)": "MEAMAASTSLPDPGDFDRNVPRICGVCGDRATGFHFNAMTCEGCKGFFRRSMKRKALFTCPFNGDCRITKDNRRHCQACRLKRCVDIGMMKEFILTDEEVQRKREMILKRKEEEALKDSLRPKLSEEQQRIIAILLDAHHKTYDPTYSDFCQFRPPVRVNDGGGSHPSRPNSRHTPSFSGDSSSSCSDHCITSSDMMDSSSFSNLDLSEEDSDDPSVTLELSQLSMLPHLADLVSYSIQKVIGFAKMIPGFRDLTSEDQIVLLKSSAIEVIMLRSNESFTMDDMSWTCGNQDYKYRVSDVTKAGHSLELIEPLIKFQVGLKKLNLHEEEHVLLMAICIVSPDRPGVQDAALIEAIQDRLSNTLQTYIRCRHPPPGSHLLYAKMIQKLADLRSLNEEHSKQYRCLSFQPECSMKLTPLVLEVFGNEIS", "experiment": "ATG_VDR_TRANS: Attagene TRANS-FACTORIAL HepG2 Assay for human Vitamin D Receptor (VDR) (AID 2283022)", "in_short": "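HepG2 cells were transiently transfected with multiple GAL4-UAS reporter units, so signal reflects exogenous chimeric receptor-Gal4 activity. After 24 h compound exposure, reporter mRNA was measured by RT-PCR, fluorescent labelling and capillary electrophoresis, fitted for gain of signal versus DMSO.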"}, "[8]": {"experiment": "ACEA_AR_agonist_AUC_viability: ACEA Biosciences xCELLigence Real-Time Cell Analysis on Androgen Receptor Agonism for Viability (AID 2283775)", "in_short": "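Read-out is area under the impedance curve at 80 h post-dose in 22Rv1 cells, with DMSO as baseline and signal loss taken as reduced viability. Compounds ran in duplicate from 100 uM final.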"}, "[9]": {"biological_target": "Retinoic acid receptor RXR-alpha (Homo sapiens) (UniProt P19793)", "sequence (P19793 whole entry, looked up, the tested form may be a part)": "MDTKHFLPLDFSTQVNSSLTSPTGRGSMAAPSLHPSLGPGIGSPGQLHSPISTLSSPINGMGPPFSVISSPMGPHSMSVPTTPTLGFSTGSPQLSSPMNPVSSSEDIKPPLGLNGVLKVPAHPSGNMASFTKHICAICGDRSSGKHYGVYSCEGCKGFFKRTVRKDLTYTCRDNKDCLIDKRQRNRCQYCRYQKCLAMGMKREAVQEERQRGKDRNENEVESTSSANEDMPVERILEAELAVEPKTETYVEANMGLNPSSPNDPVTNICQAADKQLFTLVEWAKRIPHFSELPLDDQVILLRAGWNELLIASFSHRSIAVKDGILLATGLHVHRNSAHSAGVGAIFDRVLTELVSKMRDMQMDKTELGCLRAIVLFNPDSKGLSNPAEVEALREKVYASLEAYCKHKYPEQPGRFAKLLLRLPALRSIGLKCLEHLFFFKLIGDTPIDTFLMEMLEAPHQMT", "experiment": "OT_NURR1_NURR1RXRa_0480: Odyssey Thera (OT) 8-hour HEK293T Protein Complementation Assay for Nurr1/retinoid X receptor (RXR) (AID 2283385)", "in_short": "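Compounds are applied to HEK293T cells carrying Nurr1 and RXRα linked to reporter fragments. After 8 h, fluorescence intensity reports heterodimer formation, with DMSO as baseline.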"}, "[10]": {"biological_target": "Peroxisome proliferator-activated receptor gamma (Homo sapiens) (UniProt P37231)", "sequence (P37231 whole entry, looked up, the tested form may be a part)": "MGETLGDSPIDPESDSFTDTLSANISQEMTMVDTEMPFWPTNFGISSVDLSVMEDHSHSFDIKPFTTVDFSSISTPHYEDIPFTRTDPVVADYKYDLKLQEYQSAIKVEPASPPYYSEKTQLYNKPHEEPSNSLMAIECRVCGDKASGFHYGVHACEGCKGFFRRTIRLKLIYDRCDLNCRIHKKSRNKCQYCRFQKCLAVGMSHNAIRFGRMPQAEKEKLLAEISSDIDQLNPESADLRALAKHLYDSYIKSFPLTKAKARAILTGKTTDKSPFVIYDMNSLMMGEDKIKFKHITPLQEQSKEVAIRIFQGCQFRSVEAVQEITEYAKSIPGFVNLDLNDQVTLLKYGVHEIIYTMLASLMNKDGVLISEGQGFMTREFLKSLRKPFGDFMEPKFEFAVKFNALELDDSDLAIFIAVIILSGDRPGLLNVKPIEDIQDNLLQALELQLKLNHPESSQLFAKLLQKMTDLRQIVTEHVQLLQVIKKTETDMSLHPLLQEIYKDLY", "experiment": "OT_PPARg_PPARgSRC1_1440: Odyssey Thera (OT) 24-hour Protein-Complementation Assay for Peroxisome Proliferator-activated Receptor Gamma/ SRC-1 Co-activator (AID 2283388)", "in_short": "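HEK293T cells transiently transfected with PPARg and SRC-1 fused via (Gly4Ser)2 linker to split Venus YFP fragments (IFP1/IFP2) were dosed 24 h; fixed, Draq5-stained, imaged at 488/635 nm; nuclear/cytoplasmic fluorescence ratio scored versus DMSO baseline, gain-of-signal.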"}, "[11]": {"read-out": "Keratin 19 (KRT19), KRT19 (gene 3880)", "experiment": "LTEA_HepaRG_KRT19: Life Technologies and Expression Analysis (LTEA) Assay for Keratin 19 (KRT19) using HepaRG (AID 2283512; active = hit-call score of the fitted dose curve at least 0.9, where 1 is the maximum; inactive = score below 0.9)", "details": "actives raise or lower the signal; mRNA level, 48 h", "in_short": "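Differentiated human HepaRG cells, plated 48 h, were exposed in duplicate for 48 h in serum-free induction medium to eight half-log concentrations up to 100 uM in 0.5% DMSO. KRT19 mRNA was quantified by qRT-PCR, normalized to ACTB, GAPDH and POLR2A, and fitted bidirectionally versus DMSO.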"}, "[12]": {"read-out": "JUN Transcription Factor, JUN (gene 3725)", "experiment": "LTEA_HepaRG_JUN: Life Technologies and Expression Analysis (LTEA) Assay for JUN Transcription Factor using HepaRG (AID 2283513; active = hit-call score of the fitted dose curve at least 0.9, where 1 is the maximum; inactive = score below 0.9)", "details": "actives raise or lower the signal; mRNA level, 48 h", "in_short": "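Human HepaRG liver cells receive test chemicals in 0.5% DMSO for 48 h across an eight-point range topping at 100 uM. Expression changes in JUN are scored in both directions against the DMSO vehicle.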"}, "[13]": {"read-out": "X-box binding protein 1 (XBP1), XBP1 (gene 7494)", "experiment": "LTEA_HepaRG_XBP1: Life Technologies and Expression Analysis (LTEA) Assay for X-box binding protein 1 (XBP1) using HepaRG (AID 2283540; active = hit-call score of the fitted dose curve at least 0.9, where 1 is the maximum; inactive = score below 0.9)", "details": "actives raise or lower the signal; mRNA level, 48 h", "in_short": "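Differentiated human HepaRG cells in serum-free induction medium were exposed in duplicate for 48 h to eight half-log concentrations up to 100 uM in 0.5% DMSO. XBP1 mRNA was quantified by qRT-PCR, normalised to ACTB, GAPDH and POLR2A, with bidirectional fitting against DMSO.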"}, "[14]": {"experiment": "CCTE_Harrill_HTTr_Viability_MCF7: CCTE's 6-hour Cell Viability Assessment for the High-Throughput Transcriptomics (HTTr) Platform, in MCF-7 cells cultured in DMEM + 10% fetal bovine serum, Harrill Lab (AID 2284010; active = hit-call score of the fitted dose curve at least 0.9, where 1 is the maximum; inactive = score below 0.9)", "in_short": "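Viability measured through PI dye exclusion by high-content imaging at 6 h post-dosing.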"}, "[15]": {"experiment": "CCTE_Shafer_MEA_dev_per_network_spike_spike_percent: CCTE's Neural Network Formation Assay for Percent of Spikes in a Network Spike, Shafer Lab (AID 2284054; active = hit-call score of the fitted dose curve at least 0.9, where 1 is the maximum; inactive = score below 0.9)", "in_short": "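Rat primary cortical neurons were grown on 48-well MEA plates (16 electrodes/well), exposed from plating day 0 through day 12, with treatment renewed on DIV 5 and 9. Percent of spikes within 0.05 s network-spike peaks was measured, summarised as AUC across days 5, 7, 9, 12.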"}}, "note": "For some assays here: Most of the hits are listed elsewhere, so they are rarer here than in the full data. Results filed as inconclusive are left out. The list shows a part of the results, in another mix than the full data. The source made the active and inactive calls. The calls were made as follows, unless noted: active = hit-call score of the fitted dose curve at least 0.9, where 1 is the maximum; inconclusive = response in the unintended direction; inactive = score below 0.9."}
{"smiles": "CCCCCCCCCCCCCCCC[N+](C)(C)CC", "values": [{"measurement": "outcome", "setting": "[1]", "value": "inactive"}, {"measurement": "outcome", "setting": "[2]", "value": "inactive"}, {"measurement": "AC50", "setting": "[3]", "value": "active: 33.5 µM"}, {"measurement": "AC50", "setting": "[4]", "value": "active: 34.8 µM"}, {"measurement": "AC50", "setting": "[5]", "value": "active: 33.9 µM"}]}
{"smiles": "CC(O)C(=O)O", "note": "(configuration not stated)", "values": [{"measurement": "outcome", "setting": "[2]", "value": "inactive"}]}
{"smiles": "CCCCCCCCCCCCOCCOS(=O)(=O)O", "values": [{"measurement": "outcome", "setting": "[6]", "value": "inactive"}, {"measurement": "outcome", "setting": "[7]", "value": "inactive"}, {"measurement": "outcome", "setting": "[8]", "value": "inactive"}]}
{"smiles": "O=C1O[C@H]([C@@H](O)CO)C(O)=C1O", "values": [{"measurement": "outcome", "setting": "[1]", "value": "inactive"}, {"measurement": "outcome", "setting": "[9]", "value": "inactive"}, {"measurement": "outcome", "setting": "[10]", "value": "inactive"}, {"measurement": "outcome", "setting": "[11]", "value": "inactive"}, {"measurement": "outcome", "setting": "[12]", "value": "inactive"}, {"measurement": "outcome", "setting": "[13]", "value": "inactive"}, {"measurement": "outcome", "setting": "[14]", "value": "inactive"}, {"measurement": "outcome", "setting": "[15]", "value": "inactive"}]}
